# Test results from the supplement of paper PMC8728848.
# This is one part of the list.
# B1: Epa1 (Candida glabrata) (protein)
# chain: MGSSHHHHHHSSGLVPRGSHMTSSNDISLASKDPTTFPLGCSPDITTPKKGLSMELYSYDFRKKGSYPCWDAAYLDPNYPRTGYKSHRLLAKVDGVTGNINFYYHATKGCTPQLGHLPASYNYPKPLTMTNFTMLLYGYFRPKVTGFHTFTISADDLLFVNFGAGNAFDCCRRDSSADHFGNYQAYAIWGSKTAKDELTVHLDAGVYYPIRLFYNNREYDGALSFTFKTESNENTVSDFSEYFFSLDDTEEGCPGLISYD
# How the values were obtained:
# Assay in all cases: glycan array binding signal (z-score within array); higher = stronger binding
# Conditions in all cases: glycan notation: IUPAC condensed, linker removed
# [1] = molecular target: Neu5Ac(a2-3)Gal(b1-4)GlcNAc(b1-3)[Neu5Ac(a2-3)Gal(b1-4)GlcNAc(b1-6)]GalNAc
# Method in brief: (§1)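 Arrays were curated from the Consortium for Functional Glycomics database, 3228 in total, and kept only where the protein sequence was available. Binding is expressed as a within-array Z-score. This score was averaged across arrays of the same protein sequence at different concentrations or buffers and across linkers, and negative values can be read as non-binding.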
# [2] = molecular target: Neu5Ac(a2-3)Gal(b1-4)GlcNAc(b1-6)GalNAc
# Method in brief: as §1
# [3] = molecular target: Neu5Ac(a2-3)Gal(b1-4)GlcNAc(b1-6)[Gal(b1-3)]GalNAc
# Method in brief: as §1
# [4] = molecular target: Neu5Ac(a2-3)Gal(b1-4)GlcNAc(b1-6)[Neu5Ac(a2-3)Gal(b1-3)]GalNAc
# Method in brief: as §1
# [5] = molecular target: Neu5Ac(a2-3)Gal(b1-4)GlcNAc6S
# Method in brief: as §1
# [6] = molecular target: Neu5Ac(a2-3)Gal(b1-4)[Fuc(a1-3)]GlcNAc
# Method in brief: as §1
# [7] = molecular target: Neu5Ac(a2-3)Gal(b1-4)[Fuc(a1-3)]GlcNAc(b1-2)Man
# Method in brief: as §1
# [8] = molecular target: Neu5Ac(a2-3)Gal(b1-4)[Fuc(a1-3)]GlcNAc(b1-3)Gal
# Method in brief: as §1
# [9] = molecular target: Neu5Ac(a2-3)Gal(b1-4)[Fuc(a1-3)]GlcNAc(b1-3)Gal(b1-4)GlcNAc
# Method in brief: as §1
# [10] = molecular target: Neu5Ac(a2-3)Gal(b1-4)[Fuc(a1-3)]GlcNAc(b1-3)Gal(b1-4)[Fuc(a1-3)]GlcNAc(b1-3)Gal(b1-4)[Fuc(a1-3)]GlcNAc
# Method in brief: as §1
# [11] = molecular target: Neu5Ac(a2-3)Gal(b1-4)[Fuc(a1-3)]GlcNAc(b1-3)GalNAc
# Method in brief: as §1
# [12] = molecular target: Neu5Ac(a2-3)Gal(b1-4)[Fuc(a1-3)]GlcNAc(b1-6)[Gal(b1-3)]GalNAc
# Method in brief: as §1
# [13] = molecular target: Neu5Ac(a2-3)Gal(b1-4)[Fuc(a1-3)]GlcNAc(b1-6)[Neu5Ac(a2-3)Gal(b1-3)]GalNAc
# Method in brief: as §1
# [14] = molecular target: Neu5Ac(a2-3)Gal(b1-4)[Fuc(a1-3)]GlcNAc6S
# Method in brief: as §1
# [15] = molecular target: Neu5Ac(a2-3)Gal6S(b1-4)GlcNAc
# Method in brief: as §1
# [16] = molecular target: Neu5Ac(a2-3)Gal6S(b1-4)[Fuc(a1-3)]GlcNAc
# Method in brief: as §1
# Neu5Ac(a2-3)GalNAc = molecular target: Neu5Ac(a2-3)GalNAc
# Method in brief: as §1
# [17] = molecular target: Neu5Ac(a2-3)GalNAc(b1-4)GlcNAc
# Method in brief: as §1
# [18] = molecular target: Neu5Ac(a2-3)[GalNAc(b1-4)]Gal(b1-4)Glc
# Method in brief: as §1
# [19] = molecular target: Neu5Ac(a2-3)[GalNAc(b1-4)]Gal(b1-4)GlcNAc
# Method in brief: as §1
# [20] = molecular target: Neu5Ac(a2-3)[GalNAc(b1-4)]Gal(b1-4)GlcNAc(b1-3)GalNAc
# Method in brief: as §1
# [21] = molecular target: Neu5Ac(a2-3)[Neu5Ac(a2-6)]GalNAc
# Method in brief: as §1
# Neu5Ac(a2-6)Gal = molecular target: Neu5Ac(a2-6)Gal
# Method in brief: as §1
# [22] = molecular target: Neu5Ac(a2-6)Gal(b1-3)GlcNAc(b1-3)[Gal(b1-4)GlcNAc(b1-6)]Gal(b1-4)Glc
# Method in brief: as §1
# Neu5Ac(a2-6)Gal(b1-4)Glc = molecular target: Neu5Ac(a2-6)Gal(b1-4)Glc
# Method in brief: as §1
# [23] = molecular target: Neu5Ac(a2-6)Gal(b1-4)GlcNAc
# Method in brief: as §1
# [24] = molecular target: Neu5Ac(a2-6)Gal(b1-4)GlcNAc(b1-2)Man
# Method in brief: as §1
# [25] = molecular target: Neu5Ac(a2-6)Gal(b1-4)GlcNAc(b1-2)Man(a1-3)Man(b1-4)GlcNAc(b1-4)GlcNAc
# Method in brief: as §1
# [26] = molecular target: Neu5Ac(a2-6)Gal(b1-4)GlcNAc(b1-2)Man(a1-3)[Gal(b1-4)GlcNAc(b1-2)Man(a1-6)]Man(b1-4)GlcNAc(b1-4)GlcNAc
# Method in brief: as §1
# [27] = molecular target: Neu5Ac(a2-6)Gal(b1-4)GlcNAc(b1-2)Man(a1-3)[GlcNAc(b1-2)Man(a1-6)]Man(b1-4)GlcNAc(b1-4)GlcNAc
# Method in brief: as §1
# [28] = molecular target: Neu5Ac(a2-6)Gal(b1-4)GlcNAc(b1-2)Man(a1-3)[GlcNAc(b1-4)][Neu5Ac(a2-6)Gal(b1-4)GlcNAc(b1-2)Man(a1-6)]Man(b1-4)GlcNAc(b1-4)GlcNAc
# Method in brief: as §1
binder,measurement,setting,value
B1,glycan array binding signal (z-score),[1],-0.315
same,glycan array binding signal (z-score),[2],-0.313
same,glycan array binding signal (z-score),[3],1.45
same,glycan array binding signal (z-score),[4],-0.3
same,glycan array binding signal (z-score),[5],-0.255
same,glycan array binding signal (z-score),[6],-0.312
same,glycan array binding signal (z-score),[7],-0.346
same,glycan array binding signal (z-score),[8],-0.283
same,glycan array binding signal (z-score),[9],-0.214
same,glycan array binding signal (z-score),[10],-0.296
same,glycan array binding signal (z-score),[11],0.05
same,glycan array binding signal (z-score),[12],0.148
same,glycan array binding signal (z-score),[13],-0.131
same,glycan array binding signal (z-score),[14],-0.288
same,glycan array binding signal (z-score),[15],-0.298
same,glycan array binding signal (z-score),[16],-0.351
same,glycan array binding signal (z-score),Neu5Ac(a2-3)GalNAc,-0.312
same,glycan array binding signal (z-score),[17],-0.31
same,glycan array binding signal (z-score),[18],-0.294
same,glycan array binding signal (z-score),[19],-0.327
same,glycan array binding signal (z-score),[20],-0.312
same,glycan array binding signal (z-score),[21],-0.328
same,glycan array binding signal (z-score),Neu5Ac(a2-6)Gal,-0.255
same,glycan array binding signal (z-score),[22],0.218
same,glycan array binding signal (z-score),Neu5Ac(a2-6)Gal(b1-4)Glc,-0.284
same,glycan array binding signal (z-score),[23],-0.312
same,glycan array binding signal (z-score),[24],-0.31
same,glycan array binding signal (z-score),[25],-0.278
same,glycan array binding signal (z-score),[26],-0.219
same,glycan array binding signal (z-score),[27],-0.304
same,glycan array binding signal (z-score),[28],-0.32
